Reference: PubChem BioAssay AID2060499 (Molecular Pharmacology Branch, DTP, NCI, 2025)
Some entries of the source have several records that differ or are many. This list holds those alone. The source may hold further records. Values given together repeat one measurement (runs, samples, wells, individuals or studies).

Test system: 777334-354-R2-J4-PDC tumor spheroids with HUVEC/MSC, viability
Test: Anticancer human tumor 777334-354-R2-J4-PDC patient-derived pancreatic adenocarcinoma cell line growth inhibition [GQUAD]
Description: DNA G-quadruplex Stabilizer Agents in Combinations in Complex Spheroids
A high-throughput screen of multi-cell type tumor spheroids was designed to identify active combinations of DNA G-quadruplex stabilizer agents and targeted small molecules. Complex spheroids include a stromal component modeled by human endothelial cells (HUVEC) and fibroblasts modeled by human mesenchymal stem cells (MSCs). The concentration ranges selected for each drug and investigational agent were based upon clinically achievable concentrations if the clinical Cmax of the agent was known.
Compounds. […] If the clinical Cmax for an agent had not been determined, the highest concentration tested was 10 microM. […]
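Further: spheroids exposed to compounds for 7 days before readout.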

Cc1[nH]c2ccc(F)cc2c1-c1nc2c3cccnc3c3ncccc3c2[nH]1
viability, T/C (compound alone 10 µM, stronger effect = lower value): 29.6, 29.2, 30, 28.5, 31.9, 34.3, 43.2, 26.7, 58.6, 42.4, 48.7, 48.9% | IC50 (compound alone, run of 03/26/2024): > 10 µM, 6.11 µM, 8.41 µM, 2.77 µM
